The text below walks through data of PMC4336329 (PLoS ONE, 2015).

About 2,200 (0.71%) of roughly 310,000 compounds showed an effect of 50% or more. The effect is printed as a negative number. This is one part of the list.

The assay deals with human ether-à-go-go-related gene (hERG) potassium channel (human, UniProt Q12809). In words: primary screen, population patch clamp on CHO cells stably expressing hERG.
Sequence of human ether-à-go-go-related gene (hERG) potassium channel (Q12809 whole entry, looked up): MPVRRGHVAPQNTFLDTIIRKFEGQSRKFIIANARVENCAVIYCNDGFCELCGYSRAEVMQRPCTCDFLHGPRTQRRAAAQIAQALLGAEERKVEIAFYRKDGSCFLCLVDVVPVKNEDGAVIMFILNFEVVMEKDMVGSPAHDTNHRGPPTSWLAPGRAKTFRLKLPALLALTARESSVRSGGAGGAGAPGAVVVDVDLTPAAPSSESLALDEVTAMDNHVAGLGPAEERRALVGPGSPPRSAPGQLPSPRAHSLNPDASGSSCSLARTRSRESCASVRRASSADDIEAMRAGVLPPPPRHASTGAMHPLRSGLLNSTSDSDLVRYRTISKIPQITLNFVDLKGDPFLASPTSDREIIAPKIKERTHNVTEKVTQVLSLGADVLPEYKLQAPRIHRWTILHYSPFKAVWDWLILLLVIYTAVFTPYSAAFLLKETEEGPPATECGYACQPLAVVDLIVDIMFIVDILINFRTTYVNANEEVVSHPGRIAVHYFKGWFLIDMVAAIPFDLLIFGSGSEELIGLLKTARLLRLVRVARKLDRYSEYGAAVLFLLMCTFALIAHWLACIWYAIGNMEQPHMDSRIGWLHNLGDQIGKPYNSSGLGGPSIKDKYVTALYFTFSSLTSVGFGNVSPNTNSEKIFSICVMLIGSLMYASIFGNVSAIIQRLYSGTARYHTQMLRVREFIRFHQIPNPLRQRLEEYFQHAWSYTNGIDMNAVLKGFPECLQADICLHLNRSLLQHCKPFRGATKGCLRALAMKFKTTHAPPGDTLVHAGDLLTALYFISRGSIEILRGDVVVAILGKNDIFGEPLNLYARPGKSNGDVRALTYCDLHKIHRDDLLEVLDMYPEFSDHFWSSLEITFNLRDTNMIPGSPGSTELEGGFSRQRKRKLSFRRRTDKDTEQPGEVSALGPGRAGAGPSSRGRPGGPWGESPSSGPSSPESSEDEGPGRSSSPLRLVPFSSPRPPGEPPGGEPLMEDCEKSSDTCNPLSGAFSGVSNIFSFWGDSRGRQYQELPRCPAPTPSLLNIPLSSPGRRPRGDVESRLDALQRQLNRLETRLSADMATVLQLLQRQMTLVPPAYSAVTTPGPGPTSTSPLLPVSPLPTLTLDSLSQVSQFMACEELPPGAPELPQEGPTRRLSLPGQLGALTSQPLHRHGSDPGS
As to `CCOC(=O)C1CCCN(C(=O)COc2ccccc2O)C1` (stereo not shown), the “hERG current change (%, negative = inhibition) at 1uM” value was 10%.
As for `CCC(CC)C(=O)Nc1c2c(nn1-c1ccc(OC)cc1)CS(=O)(=O)C2`, the figure is 4.57%.
As for `Cc1ccc(-c2nnc(SCC(=O)NCC3CCCO3)n2C)cc1` (stereo not shown), the “hERG current change (%, negative = inhibition) at 1uM” value was determined as 8.33%.
With `CN(Cc1ccccc1)C(=O)COC(=O)c1ccc(Cl)c(N)c1` the figure was 5.69%; with `COc1ccc(CNC(=O)c2ccc(NS(=O)(=O)c3ccc4[nH]c(=O)[nH]c4c3)cc2)cc1OC`, 5.85%.
Regarding `Cc1c(C(=O)Nc2cc(S(=O)(=O)N3CCOCC3)ccc2N2CCN(C)CC2)oc2ccccc12`, the “hERG current change (%, negative = inhibition) at 1uM” value is 15%.
As for `Cc1cccc(NC(=O)CCC2CCN(Cc3nccs3)CC2)c1`, the figure is 6.29%; as for `CSc1ccc(S(=O)(=O)Nc2ccc(F)cc2)cc1`, 12.6%; as for `CC1=NNC(=O)C1Cc1c(Cl)cccc1Cl` (stereo not shown), 11.8%.
As for `CC(C)(C)C(=O)CSc1nc2c(c(-c3cccs3)c1C#N)CCC2.CCO`, the figure is 13.3%.
With `Cl.O=C(c1ccco1)N(CCCN1CCOCC1)c1nc(-c2ccc(Cl)cc2)cs1` the figure was -5.41%; with `O=c1c2sc3nc(N4CCOCC4)c4c(c3c2ncn1-c1ccccc1)CCCC4`, 14.8%.
For `COc1ccc(OCC(=O)Nc2ccc3c(c2)nc(CN2CCCC2)n3C)cc1`, the “hERG current change (%, negative = inhibition) at 1uM” value is recorded as -0.236%.
For the compound `COCCCNC(=S)N/N=C/c1ccc(N(C)C)cc1`, the “hERG current change (%, negative = inhibition) at 1uM” value is given as 19.1%.
Consider `CCc1ccc(C(CNC(=O)c2ccc3c(=O)n(-c4ccccc4F)c(=S)[nH]c3c2)N(C)C)cc1` (stereo not shown), for which the “hERG current change (%, negative = inhibition) at 1uM” value was 15%.
As for `NC(=O)c1ccsc1NC(=O)c1ccc(N2CCCC2=O)cc1`, the figure is 4.14%; as for `O=C(OCc1cccc(F)c1)c1cc2ccccc2cc1O`, 11.6%.
In the case of `O=C1CCCN1C(=O)COc1cc(F)ccc1[N+](=O)[O-]`, the “hERG current change (%, negative = inhibition) at 1uM” value is 15.4%.
As for `CC1(C)COC(c2ccc(F)c([N+](=O)[O-])c2)=N1`, the figure is -3.64%.
With `Cc1csc(SCC(=O)NCc2cccc(Cl)c2)n1` the figure was 9.09%.
Regarding `COc1ccc(Nc2nccc3c2ncn3C)cc1`, the “hERG current change (%, negative = inhibition) at 1uM” value was found to be 14.6%.
For `Cc1[nH]c2ccc(C(=O)OC(C)C(=O)NC3CCCCC3C)cc2c1C` (stereo not shown), the “hERG current change (%, negative = inhibition) at 1uM” value turned out to be 2.83%.
As for `Cc1ccc(S(=O)(=O)NC(=O)Nc2ncc3c(n2)CC(c2ccco2)CC3=O)cc1` (stereo not shown), the figure is 3.79%; as for `Cc1cc(OCC(=O)O)c2cccc(C)c2n1.Cl`, 11.8%; as for `CC1CCCC(C)N1CCCNC(=O)c1ccc2c(c1)NC(=O)c1ccccc1S2` (stereo not shown), 19.2%.
With `O=C(NCCN1CCCC1)c1ccc2c(c1)N(Cc1ccc(F)cc1)C(=O)c1ccccc1S2=O` (stereo not shown) the figure was 15.2%; with `COCC(=O)NCc1nc2ccccc2n1Cc1ccccc1F`, 13%; with `CCOC(=O)c1cnn(-c2nc(-c3cccc(F)c3)cs2)c1C(F)(F)F`, 4.63%.
As to `CC(=O)c1ccc(S(=O)(=O)N2CCN(C(=O)CSC(=S)N3CCCC3)CC2)cc1`, the “hERG current change (%, negative = inhibition) at 1uM” value is listed as -3.92%.
As for `CC(=O)Nc1ccc(-c2ccc(NC(C)=O)cc2)cc1`, the figure is 10.5%; as for `COc1ccc(C)cc1NC(=O)CSc1nnc(-c2ccc(C)cc2)o1`, 11.1%.
With `COC(=O)C(CCSC)NC(=O)CNS(=O)(=O)c1ccc(F)cc1` (stereo not shown) the figure was 16.4%.
Regarding `O=C(c1ccccc1-c1nc(-c2ccccc2Cl)no1)N1CCOCC1`, the “hERG current change (%, negative = inhibition) at 1uM” value was 9.72%.
As for `O=C1Cc2ccccc2C(=O)N1CCc1ccccc1`, the figure is 4.84%.
With `CCC(=O)Nc1ccc(Cl)c(NC(=O)c2cccc(OC)c2)c1` the figure was 12%.
As for `CCn1c2ccccc2c2cc(NC(=O)COC(=O)c3cc(S(=O)(=O)N4CCCCC4)ccc3Cl)ccc21`, the figure is 3.03%.
Consider `O=C(NCCc1c[nH]c2ccccc12)c1ccc(F)cc1F`, for which the “hERG current change (%, negative = inhibition) at 1uM” value was 9.99%.
With `COc1ccc(C(=O)N2CCCC(c3nc(-c4cc(OC)c(OC)c(OC)c4)no3)C2)cc1` (stereo not shown) the figure was 9.62%; with `Cc1ccc(NC(=O)Nc2ccc3c(c2)CCC3)cc1`, -20.5%.
Regarding `CCCCn1c(-c2ccc(OC(F)F)cc2)nc2c1c(=O)[nH]c(=O)n2CC(C)C`, the “hERG current change (%, negative = inhibition) at 1uM” value was -4.87%.
With `CCOC(=O)COc1ccc(C(=O)CC)cc1OC` the figure was 14.1%; with `COc1ccc(CCC(=O)Nc2ccc(C)c(S(=O)(=O)N(C)C)c2)cc1OC`, 2.59%.
As to `O=C(COC(=O)c1cc(=O)[nH]c2ccc(Br)cc12)c1ccccc1`, the “hERG current change (%, negative = inhibition) at 1uM” value is recorded as 18.8%.
`O=S(=O)(c1ccccc1)N1CCC(Oc2ccc(-n3cnnn3)cc2)CC1`: the “hERG current change (%, negative = inhibition) at 1uM” value is recorded as -44.9%.
Consider `CCn1c(C)c(C(C)=O)c(N2CCN(c3ccc(OC)cc3)CC2)nc1=S`, for which the “hERG current change (%, negative = inhibition) at 1uM” value was 0.185%.
As for `CCc1ccc(NC(=S)NC2CC3CCC(C2)N3Cc2ccco2)cc1` (stereo not shown), the figure is -11.7%.
`O=C(Nc1ccccc1)Nc1ccncc1`: the “hERG current change (%, negative = inhibition) at 1uM” value stood at 5.54%.
As for `CCc1cc2cccc(C)c2nc1SCC(=O)N1CCN(C(=O)c2ccco2)CC1`, the figure is -12.3%.
As for `NC(=O)COC(=O)CC1CC2CCC1C2` (stereo not shown), the figure is 9.03%.
As for `COc1ccc(C(=O)N/N=C/c2cc3ccccc3[nH]c2=S)cc1`, the figure is 3.93%; as for `CN1CCN(C(=O)COc2ccc(S(=O)(=O)NCc3ccccc3)cc2Cl)CC1`, 4.71%; as for `CCC(C)NS(=O)(=O)c1ccc(NS(=O)(=O)c2ccccc2[N+](=O)[O-])cc1` (stereo not shown), 11.5%.
As to `C=CCn1c(COc2ccc(F)cc2)nnc1SC(C)C(=O)NCC1CCCO1` (stereo not shown), the “hERG current change (%, negative = inhibition) at 1uM” value was 9.66%.
With `COc1ccc2cc(-c3cccnc3)ncc2c1`, the “hERG current change (%, negative = inhibition) at 1uM” value amounted to 15.5%.
Take `CCCNC(=O)c1onc(CSc2ccccc2)c1C(=O)NCCC`: the “hERG current change (%, negative = inhibition) at 1uM” value was determined as 8.4%.
On to `Cc1cccc(NC(=S)N/N=C/c2cccn2Cc2ccc(F)cc2)c1`, for which the “hERG current change (%, negative = inhibition) at 1uM” value is listed as 6.56%.
With `CCCOc1ccc2oc(=O)c3c(c2c1)CCCN3C(=O)CN1CCc2ccccc2C1` the figure was 5.33%; with `CCCCNC(=S)N(C)/N=C/c1ccc(F)cc1`, 6.79%; with `COc1ccc(OC)c(/C=N/Nc2cc(C)nc(N3CCOCC3)n2)c1`, 4.83%.
With `CC12CCC(C(=O)Nc3cccc(NC(=O)C45CCC(C)(C(=O)O4)C5(C)C)n3)(OC1=O)C2(C)C` the figure was 10.9%; with `O=c1c2ccccc2nc(COc2ccccc2)n1/N=C/c1cn[nH]c1-c1ccccc1`, 6.72%; with `Cc1nc(N(C)C)c2sc(=S)n(Cc3ccccc3)c2n1`, 11.8%.
Turning to `Cc1ccc(C)n1-c1c(C(=O)NN)cnn1-c1ccccc1`, the “hERG current change (%, negative = inhibition) at 1uM” value is given as 7.54%.
For the compound `Cc1cccc(-c2c3c(=O)n(C)c(=O)n(C)c3cn2C(C)(C)C)c1`, the “hERG current change (%, negative = inhibition) at 1uM” value was 3.64%.
Take `N#Cc1cccc(S(=O)(=O)NCC(=O)NCc2ccc3c(c2)OCO3)c1`: the “hERG current change (%, negative = inhibition) at 1uM” value amounted to 9.94%.
For the compound `CCOc1ccc(NC(=O)C2CCN(S(=O)(=O)c3ccc4c(c3)C(C)(C)C(=O)N4C)CC2)cc1`, the “hERG current change (%, negative = inhibition) at 1uM” value is recorded as 5.93%.
With `COc1ccc(NS(=O)(=O)c2ccc(N3CCOCC3)c(NC(=O)c3ccco3)c2)cc1` the figure was 18%.
With `O=P(c1ccccc1)(c1ccccc1)C(O)c1ccco1` (stereo not shown) the figure was 8.94%.
As for `O=C(c1ccc(Cn2cc(Cl)c([N+](=O)[O-])n2)cc1)N1CCN(Cc2ccccc2)CC1`, the figure is 6.22%.
As to `CC(C)CNC(=O)[C@H](Cc1ccccc1)NC(=O)c1cccs1`, the “hERG current change (%, negative = inhibition) at 1uM” value stood at 16.4%.
Regarding `COC(=O)CCC(=O)c1oc2ccc(Br)cc2c1N`, the “hERG current change (%, negative = inhibition) at 1uM” value was 12.8%.
Regarding `O=C(O)CN1CCN(c2ncc(C(F)(F)F)cc2Cl)CC1`, the “hERG current change (%, negative = inhibition) at 1uM” value is listed as 12.6%.
With `O=C(CC1(O)C(=O)c2ccccc2C1=O)c1ccccc1` the figure was 14.3%.
For the compound `CCc1c(C)sc(NC(=O)C2CCCCC2C(=O)O)c1C(N)=O` (stereo not shown), the “hERG current change (%, negative = inhibition) at 1uM” value is 9.96%.
With `CCCCCOc1ccc(C(=O)C(c2ccccc2)N2CCOCC2)cc1.Cl` (stereo not shown) the figure was 11.5%.
`COc1cc(/C=C2\CCCc3c2nc2ccccc2c3C(=O)O)cc(Cl)c1O`: the “hERG current change (%, negative = inhibition) at 1uM” value came to 13.8%.
With `CN(C)C(=O)c1ccc(NC(=O)c2ccc(-c3ccc(Cl)cc3)o2)cc1` the figure was -2.31%; with `CCCNC(=O)C(=O)N/N=C/c1cccs1`, 23.7%.
With `O=[N+]([O-])c1cccc(S(=O)(=O)Nc2ccc(-c3ccc(N4CCOCC4)nn3)cc2)c1` the figure was 0.598%.
Consider `CCCCOc1cccc(C2/C(=C(\O)c3ccc4c(c3)OCCO4)C(=O)C(=O)N2CCN2CCOCC2)c1` (stereo not shown), for which the “hERG current change (%, negative = inhibition) at 1uM” value came out at 14.2%.
As for `CCOC(=O)c1[nH]c2cc3c(cc2c1NC(=O)CN1CCCCC1C)OCO3` (stereo not shown), the figure is -7.96%; as for `COc1ccc(N2CCN(C(CNC(=O)C(=O)NCC(OC)OC)c3ccco3)CC2)cc1` (stereo not shown), 11.5%; as for `Cc1ccc(Cn2c(C3CCCN3c3nc(C)cs3)nc3cc(C(=O)NCCCO)ccc32)cc1` (stereo not shown), 4.96%.
As for `Cc1noc(C)c1-c1nnc(-c2ccc(C(F)(F)F)cc2)o1`, the figure is 14.4%.
As for `COc1ccc(S(=O)(=O)Cc2ccc(C(=O)NCc3ccccc3)o2)cc1`, the figure is 8.92%; as for `COc1ccccc1OCc1nnc(SCC(=O)N2CCCCC2)n1-c1ccccc1`, -9.97%.
For the compound `O=C(COc1ccc2c(c1)OCO2)Nc1cccc(F)c1`, the “hERG current change (%, negative = inhibition) at 1uM” value worked out at 19.2%.
Take `CN(CCOc1ccc(Cl)cc1)C(=O)C1CCN(C(=O)c2ccc(F)cc2)CC1`: the “hERG current change (%, negative = inhibition) at 1uM” value is -34.7%.
